Source: PubChem BioAssay AID686979 (National Center for Advancing Translational Sciences (NCATS), 2013)
Screen size: about 420,000 compounds; about 50,000 (12%) were called active. The shares of active, inactive and inconclusive entries below differ from those in the screen. The call rests on the fitted dose curve; in most records, active means well fitted inhibition curve with a large enough effect; inconclusive means small, poorly fitted or top-dose-only effect; inactive means flat fitted curve, though single readings scatter. No potency is given beside an inconclusive call; the fits are too rough.
On the % scale 0 is the no-effect control and ±100 the full control effect; potency means the concentration at half of the fitted maximal effect; tags describe the fitted curve by direction and shape.

Assay: qHTS for Inhibitors of human tyrosyl-DNA phosphodiesterase 1 (TDP1): qHTS in cells in presence of CPT; further: nearly all actives have a fitted effect of over 55% in size
Conditions: chicken DT40 Tdp1-/-;hTDP1 cells + 20 nM CPT, ATP luminescence, 48 h; activity change, negative = growth inhibition: at 46.2 µM (top of the series) unless noted
In short: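 Cell growth measured by CellTiter-Glo luminescence after a minimum 48 h, 37 C compound exposure with 20 nM CPT in Tdp1-knockout DT40 cells stably expressing hTDP1, seeded 400/well; qHTS titration format.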
With `COc1ccc(-c2noc(C3CCCN(S(=O)(=O)c4ccc(C)c(Cl)c4)C3)n2)cc1OC` (centres undefined) the Potency was inconclusive [inhibitor, single point].
For `CCOc1ccc(CNC(=O)CN2C(=O)C3CCCCN3c3ccc(C(=O)N4CCCC4)cc32)cc1` (centres undefined), the “activity change, negative = growth inhibition” value was inactive: -27.2%.
For `CCN1CCN(c2c(Cl)cccc2NC(=O)c2ccco2)CC1`, the “activity change, negative = growth inhibition” value was inactive: -20.7%.
In the case of `CC(C)Oc1ccc(C(=O)N2CC(=O)Nc3ccc(F)cc3C2c2ccc(F)cc2)cc1` (centres undefined), the Potency is reported as inconclusive [inhibitor, single point].
In the case of `OC(COc1ccc(C2C=CCC2)cc1)CN1CCCCC1` (centres undefined), the activity change, negative = growth inhibition is reported as inconclusive: -30.9% [inhibitor].
For `Clc1ccc(-c2cnnc(-c3ccccn3)n2)cc1`, the Potency was inconclusive [inhibitor, single point].
In the case of `CN(C)CCN(C(=O)c1ccc(S(=O)(=O)N(C)c2ccccc2)cc1)c1nc2ccc(Cl)cc2s1`, the Potency is reported as inconclusive [inhibitor, single point].
With `CCCn1c2ccc(F)cc2c2nnc(SCCN3CCOCC3)nc21` the Potency was active: 18.4 µM.
With `COc1ccccc1CNC(=O)COc1ccccc1C(=O)c1cnn(-c2ccccc2)c1` the Potency was active: 23.1 µM.
In the case of `CC1=C(C(=O)OC(C)(C)C)C(c2cccc3ccccc23)NC(=O)N1` (centres undefined), the Potency is reported as inconclusive [inhibitor, single point].
For `CCOC(=O)C1=C(N)Oc2c(c(=O)[nH]c3ccccc23)C1c1ccccc1` (centres undefined), the Potency was active: 23.1 µM.
For `COc1cc(CNc2ccc3[nH]c(=O)[nH]c3c2)cc(Br)c1OCc1ccc(F)cc1`, the Potency was active: 7.31 µM.
For `CN(C)c1cccc(C(=O)N2CCC(c3ccncc3)CC2)c1`, the Potency was active: 20.6 µM.
For `CNC(=O)C(=O)Nc1ccc2c(c1)N(S(=O)(=O)c1cccs1)CCC2`, the Potency was inconclusive [inhibitor, single point].
In the case of `CCOC(=O)CC1C(=O)NCCN1S(=O)(=O)c1ccc(Br)cc1` (centres undefined), the Potency is reported as inconclusive [inhibitor, full curve].
For `COc1ccc(Cn2ccc3nc(C)c(C(=O)N4CCN(c5cc(C)ccc5C)CC4)cc3c2=O)cc1`, the Potency was active: 20.6 µM.
For `CCN(C(=O)CSc1nc(-c2cccs2)nc2ccccc12)C1CCS(=O)(=O)C1` (centres undefined), the Potency was inconclusive [inhibitor, single point].
For `C=CCn1c(SCCOc2ccccc2)nnc1C(C)NC(=O)c1ccccc1` (centres undefined), the Potency was inconclusive [inhibitor, partial curve, poor fit].
With `Cc1cccc(C)c1NC(=O)C(c1ccnc2ccccc12)N1CCN(CCN(C)C)CC1` (centres undefined) the Potency was active: 4.61 µM.
